Measurements as given in the BET-seq Pho4 binding data (Le et al. 2018).
This is one part of the list. Values were computed here from the reads of four pooled replicates and scatter widely.

These sequences were tested against T1, Pho4 (S. cerevisiae) (UniProt P07270) (assay: relative binding free energy (BET-seq); higher = weaker binding). Settings: reference: library average.
T1 sequence: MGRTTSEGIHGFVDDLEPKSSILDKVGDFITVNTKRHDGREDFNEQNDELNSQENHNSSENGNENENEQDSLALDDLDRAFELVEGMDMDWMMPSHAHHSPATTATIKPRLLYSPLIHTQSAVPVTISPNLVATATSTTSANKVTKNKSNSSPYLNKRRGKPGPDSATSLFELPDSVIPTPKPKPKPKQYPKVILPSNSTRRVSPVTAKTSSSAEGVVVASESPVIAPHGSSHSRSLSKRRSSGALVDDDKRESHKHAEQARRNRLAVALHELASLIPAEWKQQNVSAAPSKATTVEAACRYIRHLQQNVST
For AGTTTCACGTGGAGTT, the “relative binding free energy” value was 0.3 kcal/mol. For AGTCGCACGTGGTTGG, the “relative binding free energy” value was -0.11 kcal/mol. GGTTACACGTGCATGT was tested, and the “relative binding free energy” value was 0.1 kcal/mol. In the case of AGGGACACGTGGAGCG, the “relative binding free energy” value is reported as 0.01 kcal/mol. For GTGCGCACGTGTGTAT, the “relative binding free energy” value was -0.15 kcal/mol. In the case of TTAGGCACGTGGACTT, the “relative binding free energy” value is reported as -0.08 kcal/mol. In the case of GGTTGCACGTGTAAGA, the “relative binding free energy” value is reported as 0.2 kcal/mol. With TAGAGCACGTGTCATT the “relative binding free energy” value was -0.07 kcal/mol. With CTTGACACGTGCTGTT the “relative binding free energy” value was 0.07 kcal/mol. AGATGCACGTGACGGT was tested, and the “relative binding free energy” value was 0.13 kcal/mol. In the case of GGGGCCACGTGAGAAG, the “relative binding free energy” value is reported as 0.09 kcal/mol. For GGGTTCACGTGTTAAA, the “relative binding free energy” value was 0.32 kcal/mol. In the case of TTGTCCACGTGTGTGT, the “relative binding free energy” value is reported as -0.05 kcal/mol. In the case of CGTAACACGTGATGGG, the “relative binding free energy” value is reported as 0.15 kcal/mol. CCAGGCACGTGTGTGT was tested, and the “relative binding free energy” value was -0.16 kcal/mol. GGGTACACGTGATGCT was tested, and the “relative binding free energy” value was 0.21 kcal/mol. In the case of GGTATCACGTGTATCT, the “relative binding free energy” value is reported as 0.17 kcal/mol. With CTGCGCACGTGGTTGT the “relative binding free energy” value was -0.35 kcal/mol. With AGAGTCACGTGGATTA the “relative binding free energy” value was 0.08 kcal/mol. For AGATACACGTGGGTTT, the “relative binding free energy” value was -0.07 kcal/mol. AGAATCACGTGGGTCG was tested, and the “relative binding free energy” value was 0.14 kcal/mol. With TTTGTCACGTGGTGAG the “relative binding free energy” value was 0.07 kcal/mol. In the case of GAGTGCACGTGAGTGA, the “relative binding free energy” value is reported as 0.38 kcal/mol. For TATGTCACGTGATTTT, the “relative binding free energy” value was 0.29 kcal/mol. For CGAAGCACGTGGGTGT, the “relative binding free energy” value was -0.25 kcal/mol. In the case of AATGGCACGTGGGTTC, the “relative binding free energy” value is reported as -0.12 kcal/mol. In the case of TTTTACACGTGACGGC, the “relative binding free energy” value is reported as 0.36 kcal/mol. In the case of CTTGGCACGTGACGGT, the “relative binding free energy” value is reported as -0.06 kcal/mol. In the case of AAGGGCACGTGAGTCA, the “relative binding free energy” value is reported as 0.21 kcal/mol. With CTGTTCACGTGTGGCT the “relative binding free energy” value was 0.34 kcal/mol. With TTTGGCACGTGATGAC the “relative binding free energy” value was -0.04 kcal/mol. For GTATTCACGTGTTTGA, the “relative binding free energy” value was 0.33 kcal/mol. In the case of TGCAGCACGTGTAGTT, the “relative binding free energy” value is reported as 0.01 kcal/mol. For GGTTGCACGTGCGTAG, the “relative binding free energy” value was -0.03 kcal/mol. GTCGACACGTGTAGTT was tested, and the “relative binding free energy” value was 0.07 kcal/mol. CTTAGCACGTGGTCTT was tested, and the “relative binding free energy” value was -0.07 kcal/mol. In the case of ATGGCCACGTGTTGGC, the “relative binding free energy” value is reported as -0.03 kcal/mol. GACGTCACGTGGGATT was tested, and the “relative binding free energy” value was 0.13 kcal/mol. In the case of GGTAACACGTGGGTAC, the “relative binding free energy” value is reported as -0.09 kcal/mol. In the case of TGGCTCACGTGTGATT, the “relative binding free energy” value is reported as 0.41 kcal/mol. For GGTAGCACGTGTTCGA, the “relative binding free energy” value was 0.01 kcal/mol. With TTTACCACGTGGAGTT the “relative binding free energy” value was -0.11 kcal/mol. In the case of ATTTACACGTGGGCGA, the “relative binding free energy” value is reported as 0.05 kcal/mol. In the case of GGAAACACGTGTGGAG, the “relative binding free energy” value is reported as 0.14 kcal/mol. With TTGGGCACGTGACGTG the “relative binding free energy” value was 0.04 kcal/mol. AACTTCACGTGTGTAG was tested, and the “relative binding free energy” value was 0.33 kcal/mol. In the case of GGAATCACGTGTAGAT, the “relative binding free energy” value is reported as 0.31 kcal/mol. GTCGGCACGTGATTTA was tested, and the “relative binding free energy” value was 0.03 kcal/mol. CGTAGCACGTGAGGCG was tested, and the “relative binding free energy” value was 0.11 kcal/mol. ATGCACACGTGGCGGG was tested, and the “relative binding free energy” value was -0.06 kcal/mol. For GATGACACGTGGTATA, the “relative binding free energy” value was 0.04 kcal/mol. With AGTAACACGTGGGTCA the “relative binding free energy” value was 0.09 kcal/mol. In the case of TATTTCACGTGGTCTG, the “relative binding free energy” value is reported as 0.27 kcal/mol. In the case of GATGGCACGTGGAGCT, the “relative binding free energy” value is reported as -0.13 kcal/mol. In the case of ATGGACACGTGAGGAT, the “relative binding free energy” value is reported as 0.24 kcal/mol. With GTCGTCACGTGGTTCT the “relative binding free energy” value was 0.15 kcal/mol. In the case of TGGGGCACGTGGAGGG, the “relative binding free energy” value is reported as -0.06 kcal/mol. In the case of TGGCTCACGTGGGGAG, the “relative binding free energy” value is reported as 0.19 kcal/mol. In the case of AGAGACACGTGGAGGA, the “relative binding free energy” value is reported as -0.02 kcal/mol. For ATATGCACGTGTATAA, the “relative binding free energy” value was -0.07 kcal/mol. With GGTGTCACGTGTTGTT the “relative binding free energy” value was 0.14 kcal/mol. With CTTTGCACGTGGAGTG the “relative binding free energy” value was 0.02 kcal/mol. In the case of AGTATCACGTGTGTTA, the “relative binding free energy” value is reported as 0.16 kcal/mol. With ACGGTCACGTGTTTTA the “relative binding free energy” value was 0.04 kcal/mol. TGTGCCACGTGAGGTT was tested, and the “relative binding free energy” value was -0.03 kcal/mol. In the case of AAGGTCACGTGGGCAT, the “relative binding free energy” value is reported as -0.01 kcal/mol. With ATTGGCACGTGGGTCA the “relative binding free energy” value was -0.22 kcal/mol. With TGGAGCACGTGGAGCT the “relative binding free energy” value was -0.1 kcal/mol. For CAGTTCACGTGTTGCG, the “relative binding free energy” value was 0.24 kcal/mol. For TTAAACACGTGATGAG, the “relative binding free energy” value was 0.18 kcal/mol. For TTGAGCACGTGGAGAG, the “relative binding free energy” value was -0.04 kcal/mol. CGGGGCACGTGAGAGT was tested, and the “relative binding free energy” value was 0.21 kcal/mol. TAGTGCACGTGGTTTG was tested, and the “relative binding free energy” value was -0.03 kcal/mol. With GTATGCACGTGTTGTA the “relative binding free energy” value was -0.07 kcal/mol. For AGGGGCACGTGGCCTT, the “relative binding free energy” value was -0.29 kcal/mol. ATGTACACGTGAGAGG was tested, and the “relative binding free energy” value was 0.3 kcal/mol. For ATGTTCACGTGGCTGC, the “relative binding free energy” value was 0.19 kcal/mol. In the case of TTGTTCACGTGGTGTC, the “relative binding free energy” value is reported as 0.23 kcal/mol. In the case of AGGGCCACGTGTGGCG, the “relative binding free energy” value is reported as -0.03 kcal/mol. In the case of GGAAGCACGTGAGTGT, the “relative binding free energy” value is reported as -0.06 kcal/mol. In the case of TACTTCACGTGAGAGT, the “relative binding free energy” value is reported as 0.41 kcal/mol. In the case of TTCTTCACGTGTTACT, the “relative binding free energy” value is reported as 0.26 kcal/mol. With AGGAACACGTGAAGTG the “relative binding free energy” value was 0.25 kcal/mol. ATAGTCACGTGGGTGC was tested, and the “relative binding free energy” value was -0.15 kcal/mol. TGGATCACGTGTTAGT was tested, and the “relative binding free energy” value was 0.17 kcal/mol. For GAATGCACGTGGTCGT, the “relative binding free energy” value was -0.07 kcal/mol. With ATTTTCACGTGCTTAG the “relative binding free energy” value was 0.27 kcal/mol. TGGCGCACGTGAGTGT was tested, and the “relative binding free energy” value was 0 kcal/mol. For AAGTGCACGTGGTGGG, the “relative binding free energy” value was 0.03 kcal/mol. For ATGCGCACGTGTGATT, the “relative binding free energy” value was -0.04 kcal/mol. With TATTTCACGTGCTAGA the “relative binding free energy” value was 0.28 kcal/mol. For AGAAGCACGTGGAGTG, the “relative binding free energy” value was -0.04 kcal/mol. In the case of ATCGTCACGTGAGGTG, the “relative binding free energy” value is reported as 0.28 kcal/mol. In the case of GGGCTCACGTGAGGTT, the “relative binding free energy” value is reported as 0.43 kcal/mol. With TGTCTCACGTGTCTGG the “relative binding free energy” value was 0.12 kcal/mol. With TGGTTCACGTGGAGCC the “relative binding free energy” value was 0.43 kcal/mol. For ATGGGCACGTGTTAGC, the “relative binding free energy” value was -0.11 kcal/mol. In the case of GGGGGCACGTGTGTCA, the “relative binding free energy” value is reported as 0.02 kcal/mol. For GCTTGCACGTGTTTAG, the “relative binding free energy” value was 0.09 kcal/mol. TGTGGCACGTGTAATG was tested, and the “relative binding free energy” value was 0 kcal/mol. With ATCGGCACGTGGGTCT the “relative binding free energy” value was -0.1 kcal/mol. In the case of TTGTCCACGTGGTCGG, the “relative binding free energy” value is reported as -0.07 kcal/mol. ATTGGCACGTGAGTCA was tested, and the “relative binding free energy” value was 0.03 kcal/mol. GTTGGCACGTGCCTGT was tested, and the “relative binding free energy” value was -0.18 kcal/mol. For TGTGTCACGTGGGGGA, the “relative binding free energy” value was -0.06 kcal/mol. In the case of CTTTTCACGTGAAGTG, the “relative binding free energy” value is reported as 0.33 kcal/mol. For AATGGCACGTGGTTGG, the “relative binding free energy” value was -0.09 kcal/mol. For GATTTCACGTGGCGGA, the “relative binding free energy” value was 0.3 kcal/mol. In the case of TTGTTCACGTGTACGG, the “relative binding free energy” value is reported as 0.26 kcal/mol. With TAGAGCACGTGGGGGC the “relative binding free energy” value was -0.21 kcal/mol. For GTGTTCACGTGGCATG, the “relative binding free energy” value was 0.16 kcal/mol. In the case of TTCATCACGTGTTTTC, the “relative binding free energy” value is reported as 0.2 kcal/mol. With GAGGGCACGTGATGTT the “relative binding free energy” value was 0.11 kcal/mol. TCCGTCACGTGTGGAT was tested, and the “relative binding free energy” value was 0.21 kcal/mol. In the case of TTATACACGTGCAGTT, the “relative binding free energy” value is reported as -0.02 kcal/mol.
